# Experimental data taken from PubChem BioAssay AID588342 (National Center for Advancing Translational Sciences (NCATS), 2011).
# The whole screen tested about 360,000 compounds, of which about 25,000 (6.9%) were called active. Inconclusive results, whose numbers are uncertain, are shown with a selection of clear calls. Calls follow the shape of the dose curve; as a rule, active = well fitted inhibition curve with a large enough effect; inconclusive = small, poorly fitted or top-dose-only effect; inactive = flat fitted curve, though single readings scatter. Where the call is inconclusive, the potency comes from a doubtful curve fit.
# Biological target: Luciferin 4-monooxygenase (Photinus pyralis) (UniProt P08659)
# UniProt P08659, sequence (P08659 whole entry, looked up): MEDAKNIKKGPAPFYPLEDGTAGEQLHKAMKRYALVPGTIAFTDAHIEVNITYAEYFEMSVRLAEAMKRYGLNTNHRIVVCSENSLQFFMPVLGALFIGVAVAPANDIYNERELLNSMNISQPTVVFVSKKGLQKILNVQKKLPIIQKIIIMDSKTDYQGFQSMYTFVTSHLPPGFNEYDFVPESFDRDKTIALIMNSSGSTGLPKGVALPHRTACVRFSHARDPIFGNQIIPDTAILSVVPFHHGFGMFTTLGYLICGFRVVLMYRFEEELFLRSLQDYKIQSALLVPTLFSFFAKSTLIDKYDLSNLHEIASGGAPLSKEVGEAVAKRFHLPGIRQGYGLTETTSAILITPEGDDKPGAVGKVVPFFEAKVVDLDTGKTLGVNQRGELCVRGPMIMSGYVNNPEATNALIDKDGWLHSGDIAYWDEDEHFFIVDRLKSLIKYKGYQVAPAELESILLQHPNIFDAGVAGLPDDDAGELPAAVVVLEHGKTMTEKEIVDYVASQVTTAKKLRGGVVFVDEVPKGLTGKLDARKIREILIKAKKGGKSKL
# Experiment: qHTS profiling assay for firefly luciferase inhibitor/activator using purifed enzyme and Km concentrations of substrates (counterscreen for miR-21 project); also: nearly all actives have a fitted effect of over 55% in size
# Settings: purified FLuc, luminescence inhibition; series mostly up to 57.5 µM
# Method in brief: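 Purified P. pyralis luciferase (10nM final) with 10uM D-luciferin and 10uM ATP (Km levels) in 50mM Tris acetate pH 7.5, 10mM Mg acetate, 0.01% Tween-20, 0.05% BSA; qHTS 6-point titration, ~60 µM downward; luminescence read.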
# Potency is read from the fitted curve at half-maximal effect; tags tell the direction and shape of the fitted curve.
row,Structure (SMILES),Potency
1,O=C(N/N=C/c1ccccc1)c1c(O)c2ccccc2[nH]c1=O,"inconclusive: 37.9 µM [inhibitor, single point]"
2,CCC1CCc2sc(C(=O)N(C)CC(=O)Nc3cccc(OC)c3)cc2C1 (stereo not drawn),"inconclusive: 37.9 µM [inhibitor, partial curve, poor fit]"
3,CCN(CC)C(=O)c1ccc(-c2cccs2)s1,active: 10.7 µM
4,N#Cc1c(SCC(=O)Nc2nc3ccc(Br)cc3s2)sc2c(O)cc(=O)[nH]c12,"inconclusive: 10.7 µM [inhibitor, partial curve, poor fit]"
5,CC(Oc1ccc(-c2ccccc2)cc1)C(=O)N/N=C/c1cccnc1 (stereo not drawn),"inconclusive: 21.3 µM [inhibitor, single point]"
6,COc1ccc(-c2cc(C(=O)O)sc2C)cc1,"inconclusive: 10.7 µM [inhibitor, partial curve]"
7,CC(C)Nc1ccc(Nc2ccnc3cc4ccccc4cc23)cc1,"inconclusive: 37.9 µM [inhibitor, partial curve, poor fit]"
8,Oc1ccc2ccccc2c1CNc1ccc(Br)cc1,inactive
9,CCc1nnc(NC(=O)/C=C/c2ccc(C)o2)s1,"inconclusive: 26.9 µM [inhibitor, partial curve, poor fit]"
10,Cc1ccc(S(=O)(=O)CCC(=O)NCCN2C(=O)S/C(=C/c3ccc(F)cc3)C2=O)cc1,"inconclusive: 26.9 µM [inhibitor, partial curve, poor fit]"
11,C[C@H]1CN=C(N(C)C)N1CC1CCC(C(C)(C)C)CC1 (stereo partly drawn),inactive
12,COc1cc(/C=C/C(=O)OCC(=O)Nc2ccc(C)c(S(=O)(=O)N3CCCCC3)c2)ccc1O,"inconclusive: 23.9 µM [inhibitor, partial curve, poor fit]"
13,CC(C)N1CCc2c(sc(NC(=O)c3ccc(S(=O)(=O)N(C)C4CCCCC4)cc3)c2C(N)=O)C1,"inconclusive: 37.9 µM [inhibitor, partial curve, poor fit]"
14,CC(C)c1ccc2c(c1)[C@H]1OCC[C@H]1[C@@H](c1cccs1)N2,active: 9.53 µM
15,CCOC(=O)N/N=C/c1ccc(Oc2ccccc2)cc1,active: 19 µM
16,O=C(NCCCc1ccccc1)Nc1ccccc1,"inconclusive: 13.5 µM [inhibitor, partial curve]"
17,Cc1ccccc1-c1nc(CS(=O)CC(=O)NCc2ccccn2)c(C)o1 (stereo not drawn),inactive
18,COCCc1nn2c(=O)cc(COC(=O)c3ccco3)nc2s1,inactive
19,COC(=O)C1C(=O)c2c([nH]c(C(=O)OCC3CCCO3)c2C)CC1C (stereo not drawn),active: 8.49 µM
20,Cc1cccc(CSc2ncnc3ccccc23)c1,"inconclusive: 23.9 µM [inhibitor, partial curve, poor fit]"
21,Nc1nnc(SCC(=O)Nc2nnc(-c3ccccc3)o2)s1,"inconclusive: 23.9 µM [inhibitor, single point]"
22,CCOc1ccc2cc(C(=O)NCc3ccccc3)c(=N)oc2c1,active: 21.3 µM
23,CCCCN=Cc1c(C)[nH]n(-c2ccccc2)c1=S,"inconclusive: 37.9 µM [inhibitor, partial curve, poor fit]"
24,COc1ccc(/C=C/c2cc(=O)c3cc(Cl)ccc3o2)cc1,"inconclusive: 9.53 µM [inhibitor, partial curve, poor fit]"
25,COc1ccc(OCc2cc(C(=O)NCC3CCOCC3)no2)c(Cl)c1,active: 13.5 µM

row,Structure (SMILES),Potency
1,N#CCCN(Cc1ccccc1)S(=O)(=O)c1cccs1,inactive
2,CCc1ccc(NC(=O)C2CCCN(S(=O)(=O)c3cccc4cccnc34)C2)cc1 (stereo not drawn),inactive
3,CCN(CC)C(=O)N1CCN(c2c([N+](=O)[O-])c(=O)oc3ccccc23)CC1,inactive
4,CCCCOC(=O)CSc1nc2c(cc1C#N)C(=O)CC(C)(C)C2,"inconclusive: 10.7 µM [inhibitor, partial curve, poor fit]"
5,Cc1ccccc1NC(=O)C1CCN(S(=O)(=O)c2ccccc2)CC1,inactive
6,NS(=O)(=O)c1ccc(CCNC(=O)c2ccc[nH]c2=S)cc1,inactive
7,Cc1cccc(C(=O)Nc2nc3ccc(S(C)(=O)=O)cc3s2)c1,active: 2.13 µM
8,Cc1ccc2[nH]c(CSc3nnc(NC(=O)COc4ccccc4Cl)s3)cc(=O)c2c1,"inconclusive: 2.69 µM [inhibitor, partial curve, poor fit]"
9,COc1ccc(NC(=O)N2CCCc3ccccc32)cc1,"inconclusive: 26.9 µM [inhibitor, single point]"
10,Cc1ccccc1NCc1nnc2n1CCCCC2,inactive
11,CC1Sc2ccc(S(=O)(=O)CCC(=O)NC3CCCC(C)C3C)cc2NC1=O (stereo not drawn),inactive
12,COc1ccc(C(=O)NCC(=O)N/N=C/c2cccc(OC(=O)c3ccco3)c2)cc1OC,"inconclusive: 37.9 µM [inhibitor, partial curve, poor fit]"
13,Cc1cc(C(=O)N/N=C2\CC(=O)c3ccccc32)c(C)n1-c1ccccc1,active: 2.69 µM
14,CN(CCO)c1ccc(/C=N/Nc2nncc3ccccc23)cc1,active: 0.0757 µM
15,Cc1ccccc1NC(=O)c1sc2nc3c(c(-c4ccco4)c2c1N)CCC3,inactive
16,CCC/C=N/NC(=O)c1cc(-c2ccccc2)nc2ccccc12,"inconclusive: 16.9 µM [inhibitor, partial curve]"
17,Cc1ccc(C)c(-c2ccc(=O)n(Cc3ccc(F)cc3Cl)n2)c1,inactive
18,COc1ccc2c(c1OC)C(=O)N(c1ccc(O)cc1)C2=O,"inconclusive: 37.9 µM [inhibitor, partial curve, poor fit]"
19,COc1cccc(NC(=O)CNC(=O)N2CC(=O)Nc3ccccc32)c1,"inconclusive: 37.9 µM [inhibitor, partial curve, poor fit]"
20,O=C(Nc1ccccc1)c1ccn[nH]1,active: 10.7 µM
21,Cc1ccccc1-n1c(SCc2csc(Nc3ccccc3)n2)nnc1-c1cccnc1,"inconclusive: 37.9 µM [inhibitor, partial curve, poor fit]"
22,O=C(Cn1nnc(-c2ccc(CN3CCOCC3)cc2)n1)NC1CCCCC1,"inconclusive: 30.1 µM [inhibitor, partial curve, poor fit]"
23,O=C(N/N=C1\CCSC1)c1cc(Cl)ccc1O,"inconclusive: 19 µM [inhibitor, partial curve]"
24,COC(=O)CN(c1cc([N+](=O)[O-])ccc1OC)S(C)(=O)=O,inactive
25,COc1ccc(/C=N/Nc2nc(Nc3ccccc3)nc(N3CCCCC3)n2)c(OC)c1,active: 6.75 µM

row,Structure (SMILES),Potency
1,CCOC(=O)CCC(=O)NNC(=O)COc1ccc(C(C)C)cc1Br,"inconclusive: 26.9 µM [inhibitor, single point]"
2,COc1ccc(N=c2ssnc2Cl)cc1,"inconclusive: 37.9 µM [inhibitor, single point]"
3,O=C(N/N=C/c1ccccn1)c1cc(C2CC2)[nH]n1,active: 19 µM
4,Cc1[nH]c2ccc(C(=O)OC(C)C(=O)NCc3ccccc3)cc2c1C (stereo not drawn),inactive
5,COC(=O)c1cccc(-n2sc3ccccc3c2=O)c1,"inconclusive: 17.8 µM [inhibitor, partial curve, poor fit]"
6,O=c1c(-c2ccc([N+](=O)[O-])cc2)coc2c(O)c(O)ccc12,"inconclusive: 37.9 µM [inhibitor, single point]"
7,CCc1ccc(NC(=O)Nc2ccon2)cc1,active: 7.57 µM
8,O=C1CCC(C(=O)N2CCCCO2)CN1Cc1ccc(Cl)cc1 (stereo not drawn),inactive
9,O=[N+]([O-])c1cccc(OCC(O)CN2CCN(S(=O)(=O)c3cc(Cl)ccc3Cl)CC2)c1 (stereo not drawn),inactive
10,COc1cc(/C=C/c2nc3ccccc3c(=O)[nH]2)ccc1OC(F)F,"inconclusive: 1.51 µM [inhibitor, full curve, poor fit]"
11,CC(=O)Nc1ccc(Nc2nc(-c3sc(NC(C)=O)nc3C)cs2)cc1,"inconclusive: 19 µM [inhibitor, partial curve]"
12,O=C(Nc1ccc(O)cc1C(=O)O)c1ccc2c(c1)C(=O)N(Cc1ccco1)C2=O,"inconclusive: 37.9 µM [inhibitor, single point]"
13,COc1ccc(/C=C2\Sc3ccc(C(=O)N4CCc5ccccc5C4)cc3N(C)C2=O)cc1,"inconclusive: 37.9 µM [inhibitor, partial curve, poor fit]"
14,C/C(=N\Nc1ccc(F)cc1F)c1cccs1,active: 19 µM
15,CCOc1ccc(S(=O)(=O)N2CCC(C(=O)NCCc3ccc(S(N)(=O)=O)cc3)CC2)cc1,inactive
16,O=C(Nc1cccc2ccccc12)c1ccc(F)cc1,"inconclusive: 37.9 µM [inhibitor, partial curve, poor fit]"
17,Cc1cc2oc(=O)c(CC(=O)NCCCN(C)C)c(C)c2c2occ(C(C)(C)C)c12,"inconclusive: 26.9 µM [inhibitor, partial curve]"
18,CCOC(=O)CNC(=O)c1ccc2[nH]c3c(c2c1)CCCC3,"inconclusive: 37.9 µM [inhibitor, single point]"
19,Cc1cccc(N2C(=O)C(CC(=O)Nc3ccc(F)cc3)N(C3CCCC3)C2=O)c1 (stereo not drawn),inactive
20,CCOC(=O)C(=O)N1CCN(c2nc(-c3ccc(Cl)cc3)cs2)CC1,"inconclusive: 23.9 µM [inhibitor, single point]"
21,CCC(C)NC(=O)CSc1nnc(-c2cc(-c3ccc(C)cc3)nc3ccccc23)n1N (stereo not drawn),active: 10.7 µM
22,O=C(c1ccc(Cl)cc1)C(CN1CCCC1)c1ccccc1 (stereo not drawn),inactive
23,O=C(O)/C(=C/c1ccco1)c1ccccc1,"inconclusive: 15.1 µM [inhibitor, partial curve, poor fit]"
